{
  "source": "the supplement of paper PMC9446081",
  "note": "Among all 39,000 compounds or so, about 220 (0.56%) showed activity. This is one part of the list.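 Further: static incubation at 37 °C against the wild-type strain, values averaged over two biological replicates.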",
  "data": [
    {"test_system": "Escherichia coli K-12 BW25113", "experiment": "relative growth (OD600 normalised to plate interquartile mean) (fraction); higher = less growth inhibition, active = 0.2 or less", "details": "50 µM; LB; incubation time: overnight (16-24 h)", "values": [
      {"molecule": "C[C@H](CO)N1C[C@H](C)[C@H](CN(C)C(=O)Nc2cccc3ccccc23)OCCCC[C@H](C)Oc2ccc(NS(=O)(=O)c3ccc(Cl)cc3)cc2C1=O", "relative growth": "inactive: 1.04"},
      {"molecule": "C[C@H](CO)N1C[C@H](C)[C@@H](CN(C)S(=O)(=O)c2ccc(F)cc2)Oc2c(NC(=O)c3cnccn3)cccc2C1=O", "relative growth": "inactive: 0.996"},
      {"molecule": "C[C@@H]1CN([C@@H](C)CO)C(=O)c2cccc(NC(=O)Nc3ccc(F)cc3)c2O[C@@H]1CN(C)Cc1ccc(Oc2ccccc2)cc1", "relative growth": "inactive: 1.01"},
      {"molecule": "O=C(Nc1ccc(Br)cc1)c1ccc(N2C(=O)c3ccc(C(=O)Nc4ccc(Br)cc4)cc3C2=O)cc1", "relative growth": "inactive: 1.03"},
      {"molecule": "C[C@@H]1CN([C@@H](C)CO)C(=O)c2cc(C#CCN(C)C)cnc2O[C@H]1CN(C)C(=O)CCN1CCCCC1", "relative growth": "inactive: 0.996"},
      {"molecule": "COCCOC(=O)N1C(=O)[C@@]2(c3cc(C#CCNC(N)=O)ccc31)[C@H](c1ccccc1OCCO)N1[C@H](c3ccccc3)[C@H](c3ccccc3)OC(=O)[C@H]1[C@@H]2C(N)=O", "relative growth": "inactive: 0.996"},
      {"molecule": "C[C@H]1CCCCO[C@H](CN(C)Cc2ccc3c(c2)OCO3)[C@@H](C)CN([C@@H](C)CO)C(=O)c2cc(NC(=O)Nc3ccc(C(F)(F)F)cc3)ccc2O1", "relative growth": "inactive: 1"},
      {"molecule": "COc1ccc([Si](C)(C)[C@@H]2[C@@H](CCn3cc(CCO)nn3)O[C@]3(C(=O)N(Cc4cccc(N5C(=O)c6cccc7cccc5c67)c4)c4ccccc43)[C@H]2C)cc1", "relative growth": "inactive: 1.02"},
      {"molecule": "C[C@@H]1CN([C@@H](C)CO)C(=O)c2cc(NS(C)(=O)=O)ccc2O[C@@H]1CN(C)Cc1ccc(C(=O)O)cc1", "relative growth": "inactive: 0.978"},
      {"molecule": "Cc1ccc(S(=O)(=O)Nc2ccc3c(c2)C(=O)N([C@@H](C)CO)C[C@@H](C)[C@@H](CN(C)C(=O)NC2CCCCC2)OCCCC[C@H](C)O3)cc1", "relative growth": "inactive: 0.983"},
      {"molecule": "COCC(=O)N(C)C[C@@H]1Oc2cc(-c3ccc(C#N)cc3)ccc2S(=O)(=O)N([C@H](C)CO)C[C@@H]1C", "relative growth": "inactive: 0.978"},
      {"molecule": "C[C@@H]1CN([C@H](C)CO)C(=O)c2cccc(NS(=O)(=O)c3cn(C)cn3)c2O[C@H]1CN(C)S(=O)(=O)c1cn(C)cn1", "relative growth": "inactive: 0.943"},
      {"molecule": "C[C@H]1CN([C@@H](C)CO)C(=O)Cc2cc(NC(=O)Nc3ccc(F)cc3)ccc2O[C@@H]1CN(C)Cc1ccc(Oc2ccccc2)cc1", "relative growth": "inactive: 1.06"},
      {"molecule": "COc1ccc(CN(C)C[C@@H]2OCCCC[C@@H](C)Oc3ccc(NC(=O)c4ccncc4)cc3C(=O)N([C@@H](C)CO)C[C@@H]2C)cc1", "relative growth": "inactive: 0.996"},
      {"molecule": "O=C(NCCN1CCCC1)[C@H]1N[C@H]2c3ccc(-c4ccccc4)c(=O)n3C[C@H]2[C@@H]1CO", "relative growth": "inactive: 0.982"},
      {"molecule": "C[C@H]1CN([C@@H](C)CO)C(=O)Cc2cc(NS(=O)(=O)c3cccs3)ccc2O[C@@H]1CN(C)S(C)(=O)=O", "relative growth": "inactive: 1.01"},
      {"molecule": "COc1cccc(S(=O)(=O)N(C)C[C@@H]2Oc3ncc(C#CCC(C)C)cc3C(=O)N([C@H](C)CO)C[C@H]2C)c1", "relative growth": "inactive: 1.02"},
      {"molecule": "NC(=O)C1CCOCC1", "relative growth": "inactive: 0.985"},
      {"molecule": "C[C@H](CO)N1C[C@H](C)[C@H](CN(C)Cc2cncnc2)Oc2ncc(C#C[C@@H](C)O)cc2C1=O", "relative growth": "inactive: 0.981"},
      {"molecule": "C[C@H](CO)N1C[C@H](C)[C@H](CN(C)CC2CCCCC2)Oc2ccc(NC(=O)Nc3ccccc3)cc2C1=O", "relative growth": "inactive: 0.97"},
      {"molecule": "CC(C)NCC(O)COc1ccc(COCCOC(C)C)cc1.O=C(O)C=CC(=O)O", "note": "(stereo not given)", "relative growth": "inactive: 1.04"},
      {"molecule": "O=C(C[C@H]1CC[C@H]2[C@@H](COC[C@H](O)CN2C(=O)Nc2ccc(Cl)cc2)O1)NCCc1ccncc1", "relative growth": "inactive: 0.882"},
      {"molecule": "O=C(NO)c1ccc(C(=O)N/N=C/[C@H](O)[C@@H](O)[C@H](O)[C@H](O)CO)cc1", "relative growth": "inactive: 1.02"},
      {"molecule": "CC(C)c1ccccc1Cc1cc(C(=O)Nc2ccc(S(=O)(=O)c3ccccc3C(C)(C)C)cc2)c(O)c(O)c1O", "relative growth": "inactive: 1.1"},
      {"molecule": "C[C@H](CO)N1C[C@H](C)[C@@H](CN(C)Cc2ccccc2F)Oc2cc(C#CC3CC3)ccc2S1(=O)=O", "relative growth": "inactive: 0.927"},
      {"molecule": "C[C@@H]1CN([C@H](C)CO)C(=O)c2cc(NC(=O)NC3CCCCC3)ccc2O[C@@H](C)CCCCO[C@H]1CN(C)Cc1ccccc1", "relative growth": "inactive: 0.889"},
      {"molecule": "C=C(C)Cn1c(N2CCC(C(N)=O)CC2)nc2c1c(=O)n(C)c(=O)n2C", "relative growth": "inactive: 0.994"},
      {"molecule": "C[C@@H]1CN([C@@H](C)CO)C(=O)c2c(c3ccccc3n2C)-c2ccccc2CO[C@@H]1CN(C)Cc1ccc2c(c1)OCO2", "relative growth": "inactive: 0.992"},
      {"molecule": "C[C@H]1CN([C@@H](C)CO)C(=O)c2cc(NS(=O)(=O)c3cn(C)cn3)ccc2O[C@@H]1CN(C)Cc1ccc(C(=O)Nc2ccccc2N)cc1", "relative growth": "inactive: 0.988"},
      {"molecule": "Cc1noc(C)c1NC(=O)N(C)C[C@@H]1OCCCC[C@H](C)Oc2ccc(NS(=O)(=O)c3ccccc3)cc2C(=O)N([C@@H](C)CO)C[C@@H]1C", "relative growth": "inactive: 1.04"},
      {"molecule": "COC(=O)C12CC3(C(=O)OC)CC(C(=O)OC)(CC(C(=O)OC)(C1)C3=O)C2=O", "relative growth": "inactive: 1.02"},
      {"molecule": "COc1cccc(S(=O)(=O)N(C)C[C@@H]2OCc3cnnn3CCCC(=O)N([C@H](C)CO)C[C@H]2C)c1", "relative growth": "inactive: 1.01"},
      {"molecule": "CSC[C@H]1O[C@H](n2ccc3c(N)ncnc32)[C@@H](O)[C@H]1O", "relative growth": "inactive: 1"},
      {"molecule": "C[C@@H]1CN([C@@H](C)CO)C(=O)c2cc(NC(=O)Cc3ccccc3)ccc2O[C@@H](C)CCCCO[C@H]1CN(C)C(=O)Cc1ccccc1", "relative growth": "inactive: 1.01"},
      {"molecule": "Cc1noc(C)c1NC(=O)Nc1ccc2c(c1)C(=O)N([C@H](C)CO)C[C@H](C)[C@@H](CN(C)Cc1ccccc1)OCCCC[C@@H](C)O2", "relative growth": "inactive: 0.991"},
      {"molecule": "COc1ccc(CN(C)C[C@@H]2OCCCC[C@H](C)Oc3ccc(NC(=O)NC4CCCCC4)cc3C(=O)N([C@H](C)CO)C[C@H]2C)cc1", "relative growth": "inactive: 0.98"},
      {"molecule": "NC(=O)NCCCC(=O)O", "relative growth": "inactive: 0.997"},
      {"molecule": "CN(C)C(=O)C[C@H]1CC[C@H](NC(=O)C2CCOCC2)[C@H](CO)O1", "relative growth": "inactive: 0.989"},
      {"molecule": "CCN(CC)CCNC(=O)c1cc(Br)c(N)cc1OC", "relative growth": "inactive: 1.1"},
      {"molecule": "Cn1sc(=O)n(Cc2ccccc2)c1=O", "relative growth": "inactive: 0.945"},
      {"molecule": "C[C@@H]1CN([C@H](C)CO)C(=O)c2cccc(NC(=O)c3ccncc3)c2O[C@H]1CN(C)Cc1ccc(Oc2ccccc2)cc1", "relative growth": "inactive: 1.01"},
      {"molecule": "CCCNC(=O)[C@@]1(C)c2ccccc2C(=O)N(Cc2ccc(OC(F)(F)F)cc2)[C@H]1c1ccc(CO)cc1", "relative growth": "inactive: 0.956"},
      {"molecule": "C[C@@H]1CN([C@@H](C)CO)C(=O)c2cc(NC(=O)C3CCCCC3)ccc2O[C@@H](C)CCCCO[C@H]1CN(C)CC1CCCCC1", "relative growth": "inactive: 0.982"},
      {"molecule": "COc1ccc(S(=O)(=O)N[C@H]2C=C[C@H](CC(=O)N3CCC(Cc4ccccc4)CC3)O[C@@H]2CO)cc1", "relative growth": "inactive: 0.883"},
      {"molecule": "C[C@@H]1CN([C@H](C)CO)C(=O)Cc2cc(NC(=O)C3CC3)ccc2O[C@H]1CN(C)C(=O)Nc1ccc2c(c1)OCO2", "relative growth": "inactive: 1.03"},
      {"molecule": "CC(=O)N1CCO[C@H]2CCN(C(=O)c3cn(C)cn3)C[C@H]21", "relative growth": "inactive: 1.02"},
      {"molecule": "C[C@@H]1CN([C@H](C)CO)C(=O)c2cc(NS(=O)(=O)c3ccc(F)cc3)ccc2O[C@@H](C)CCCCO[C@@H]1CN(C)S(C)(=O)=O", "relative growth": "inactive: 1.01"},
      {"molecule": "C[C@@H]1CN([C@H](C)CO)C(=O)c2cc(NS(=O)(=O)c3cn(C)cn3)ccc2O[C@H]1CN(C)Cc1ccc(C(=O)O)cc1", "relative growth": "inactive: 0.983"},
      {"molecule": "C[C@H](CO)N1C[C@H](C)[C@@H](CN(C)C(=O)Nc2ccc3c(c2)OCO3)Oc2ccc(NC(=O)Cn3cnnn3)cc2CC1=O", "relative growth": "inactive: 0.983"},
      {"molecule": "CN1CCC(N(C)C(=O)COc2ccc(S(=O)(=O)N3CCOCC3)cc2)CC1", "relative growth": "inactive: 0.988"},
      {"molecule": "O=C(C[n+]1ccc(/C=N/O)cc1)N1CCCCC1", "relative growth": "inactive: 0.934"},
      {"molecule": "C=CCN1C(=O)[C@@]2(O[C@@H](CCn3cc([C@H](O)c4ccccc4)nn3)[C@H]([Si](C)(C)c3ccc(OC)cc3)[C@H]2C)c2cc(N3C(=O)c4cccc5cccc3c45)ccc21", "relative growth": "inactive: 1.02"},
      {"molecule": "Cc1ccc(S(=O)(=O)Nc2ccc3c(c2)C(=O)N([C@@H](C)CO)C[C@@H](C)[C@@H](CN(C)C(=O)Nc2cccc4ccccc24)O3)cc1", "relative growth": "inactive: 1"},
      {"molecule": "Cc1ccc(S(=O)(=O)Nc2ccc3c(c2)C(=O)N([C@H](C)CO)C[C@H](C)[C@H](CN(C)CC2CCCCC2)OCCCC[C@H](C)O3)cc1", "relative growth": "inactive: 0.999"},
      {"molecule": "CC(C)NC(=O)N(C)C[C@H]1Oc2ccc(NC(=O)CCC(F)(F)F)cc2C(=O)N([C@H](C)CO)C[C@@H]1C", "relative growth": "inactive: 1.01"},
      {"molecule": "C[C@@H]1CN([C@H](C)CO)C(=O)c2cc(NC(=O)CCN3CCOCC3)ccc2O[C@H]1CN(C)S(=O)(=O)c1ccc(F)cc1", "relative growth": "inactive: 1.03"},
      {"molecule": "O=C(C[C@@H]1CC[C@@H](NC(=O)CN2CCOCC2)[C@@H](CO)O1)NCCc1ccncc1", "relative growth": "inactive: 0.992"},
      {"molecule": "C[C@@H]1CN([C@@H](C)CO)C(=O)Cc2cc(NC(=O)NC3CCCCC3)ccc2O[C@H]1CN(C)Cc1ccc(Oc2ccccc2)cc1", "relative growth": "inactive: 1.02"},
      {"molecule": "CC(C)NC(=O)N(C)C[C@H]1Oc2ccc(NC(=O)C3CCCCC3)cc2CC(=O)N([C@H](C)CO)C[C@@H]1C", "relative growth": "inactive: 0.996"},
      {"molecule": "C[C@@H]1CCCCO[C@@H](CN(C)S(=O)(=O)c2cccs2)[C@@H](C)CN([C@H](C)CO)C(=O)c2cc(NC(=O)c3ccccc3)ccc2O1", "relative growth": "inactive: 1.01"}
    ]}
  ]
}
